The full ranking holds about 33,000 sequences; the median of “E-score (-0.5 to 0.5)” is about -0.036, and the highest 2% start at about 0.37. This is one part of the list.
The sequences below were run against T1, Yer064c (UniProt P40041) (assay: PBM E-score (8-mer binding enrichment) (E-score (-0.5 to 0.5)); higher = stronger / more preferred TF binding; most listed sequences are background and not binding sites). Conditions: protein concentration: 200 nM; construct: GST-full length.
T1 sequence: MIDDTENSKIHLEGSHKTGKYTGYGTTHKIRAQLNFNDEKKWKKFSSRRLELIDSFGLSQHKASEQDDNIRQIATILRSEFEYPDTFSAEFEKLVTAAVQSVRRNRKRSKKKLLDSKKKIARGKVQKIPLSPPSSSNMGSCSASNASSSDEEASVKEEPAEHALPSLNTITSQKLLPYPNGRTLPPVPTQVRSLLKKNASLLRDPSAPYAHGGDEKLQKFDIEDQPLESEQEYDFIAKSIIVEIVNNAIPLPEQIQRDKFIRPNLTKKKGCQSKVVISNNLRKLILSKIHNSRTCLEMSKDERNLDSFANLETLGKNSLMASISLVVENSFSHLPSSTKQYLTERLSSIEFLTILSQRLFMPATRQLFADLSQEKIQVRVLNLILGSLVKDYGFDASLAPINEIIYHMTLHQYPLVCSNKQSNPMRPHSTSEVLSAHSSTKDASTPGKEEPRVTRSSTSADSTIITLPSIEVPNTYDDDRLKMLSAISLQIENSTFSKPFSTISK
Procedure: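 Universal 'all 10-mer' protein binding microarrays (Agilent AMADID 015681) probed with GST-tagged S. cerevisiae TFs (full-length or DBD) made by in vitro transcription/translation (PURExpress), about 100-200 nM. Bound TF was detected with fluorescent anti-GST. Each ungapped 8-mer (which stands for itself and its reverse complement) is scored by the PBM enrichment score (E-score), a modified Wilcoxon-Mann-Whitney statistic from -0.5 to +0.5, computed with the Universal PBM Analysis Suite. Scale: above 0.35 generally sequence-specific binding.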

Sequence	PBM E-score
AGTTTGAC	0.0997
ACGGATAA	-0.0519
CCACTTCC	-0.0204
AGTCCTGG	0.251
AGCACTCG	-0.225
CGCATCTC	-0.208
AACTTTGA	0.173
ACCCGTCG	-0.22
AGGAAAGA	0.028
TCCTCGCA	0.0301
CAAAGATG	-0.0307
CCATCCTC	-0.0886
ACACAGAC	0.19
CGAGGGCG	-0.247
AGGTTAAA	0.0731
ATATATGG	0.0145
ACCATATC	0.0108
CAGCTTGA	0.198
AGTCTAAG	0.206
ATTCTCAA	0.13
GCAGTTCC	-0.275
AGTACATA	0.128
ACTCAGTG	0.251
CCTCGTCA	0.11
CCCTGTAA	-0.0746

Sequence	PBM E-score
CTAGTTGA	0.161
AAAAAGCT	-0.064
CTCACTAC	0.158
AATTAGAG	0.0626
TATGCAAA	-0.0478
GGCCGACC	-0.247
AACGGGCA	-0.194
AGAATATA	0.0599
AATGCATC	0.00264
AAATGCTA	-0.0549
AGGGTAAT	0.0524
ACGATTCA	0.298
CGCTCCCC	-0.299
TCCTCAAA	0.24
CAAGTAGA	-0.0644
AGGGACGA	-0.2
CCGGCAAC	-0.124
TCTTACCA	0.122
TGCATTAA	0.0992
CTAGGAAA	-0.00423
GAGCTATC	-0.332
CCTTATGC	-0.19
CCGTCCCG	-0.193
ATGACTGG	0.409
GCGGCGGA	-0.113

Sequence	PBM E-score
GTCCAGAA	-0.109
GAGATGGC	-0.0344
CACTTTCG	-0.131
CACAGTTC	-0.112
GTCCCTGA	0.0819
AGGTGGGG	-0.12
CGTCACCC	-0.258
CATAGCGA	0.0805
AAAATGGC	-0.194
AAAGTCCA	0.0185
GAACGAAC	-0.0123
AGGGCTAG	-0.215
ACTATCCT	0.0209
AATCCCTA	-0.185
AGCCTGGA	-0.0581
AGACAGAC	0.169
AGGGTCAG	-0.0512
CTCAACTA	0.189
GTAGACTA	0.286
ATATAGAA	0.0478
CCTTGGGA	-0.102
ACTTACCA	-0.053
TAATAGAA	0.0796
AGTCGAGG	0.0213
ACCCCGAC	0.0675

Sequence	PBM E-score
CGGGCTAA	-0.0897
AGTTGTCA	0.0701
TAGACACA	0.0513
TCTATCCA	0.0446
ACTTATCA	0.0775
ATAAGGGG	-0.235
TAATGCCA	6e-05
GCCTCAAC	-0.22
CGATGCAG	-0.113
GAATCAAA	0.268
ATACTTAC	0.0356
ACTTCCTG	0.0153
AAGAAGAA	0.0162
GCGATATA	-0.0593
ATGTCGCA	0.0105
AGTCGTTG	0.326
ATACGCGC	-0.0263
CGGAACAC	0.124
CAGAGGGA	-0.199
CCTACCGC	-0.171
AGGTGTTC	-0.0778
CAGGGGGG	-0.233
AGCTATTG	0.00415
GATAGAGC	-0.209
TGCCAAAA	0.00043

Sequence	PBM E-score
ACTTTACG	0.151
AAAGTTCA	-0.0917
CGTGGGAA	-0.0695
GTATTAAC	0.234
ATCCACTG	-0.109
ACAGCTAG	-0.234
TAGCGGAA	-0.0839
ATATGGAT	0.0955
ACCTTGCT	-0.13
CGGCACGC	-0.307
GGGGATCA	-0.142
AAAGTCCC	-0.235
CAAAGCAC	0.0195
CTGTCTTC	0.0916
ACTTCGGG	-0.0277
CCAATTGC	-0.288
GGGCTTGA	0.0139
ACACAGGG	-0.0982
AACCTGAA	-0.037
CATGGCAA	-0.056
TGCTGTAA	0.0257
CCAACTAG	0.058
TTCAACAA	0.0961
GCCGAACA	-0.137
AAATTATT	0.126

Sequence	PBM E-score
CCCGAATA	-0.225
AAGTAGAC	0.048
CATAGTGG	-0.088
AGAAGCAG	-0.1
ACAAGGTG	0.0291
GACGAGGA	0.00926
AGCCGTGG	-0.149
CTCTGGTA	0.0753
AGATCGTC	-0.175
TATCGCGA	0.0847
ACCAACTG	-0.097
AGGCCGAA	-0.147
GACATTAC	-0.0177
ATGATGAA	0.226
GGCGATAA	-0.181
CACATCCC	0.017
ATTTAGCC	0.213
CCATTTAC	-0.0793
ACCACTAT	-0.0491
AAAGAGGT	0.0563
ACCCAGCG	-0.126
ACTGAGGA	0.11
AAGGGATT	-0.1
ATTTTGAA	0.0946
GACTCAAC	0.472

Sequence	PBM E-score
CTTGCATA	-0.042
AGCAGATA	-0.0243
GATACAAC	0.0626
ATTTACGG	0.0752
TGCATGAA	0.0564
CCACTAAC	0.105
CACCGTCG	-0.089
GGCCCTTA	-0.258
ACGTAATA	0.0231
GCAACTCA	0.0988
AGGGTTCC	-0.147
ACAATAAC	0.0906
CCGGCGAC	0.0303
CTGAAGCA	-0.0178
ACAAAAGG	-0.252
CTACCCAG	-0.117
CCGCATCC	-0.211
TAGCCTGA	0.146
CACTTAGG	0.0181
ATTATAGA	0.173
CAGGGGAG	-0.108
CTCTTCGC	-0.0242
CGGTTACG	-0.00321
ACTTGCCA	-0.0758
CTCATAGC	0.136

Sequence	PBM E-score
ATGTGAGG	-0.00401
AGGGGGAT	-0.373
GAATTTTA	0.0356
ACTAGAAC	0.0195
ATTTATTC	0.178
GATCGATA	-0.0109
GGTACATA	-0.0874
GAAAACGC	-0.224
CCACAGAA	-0.00862
AATCGCAC	0.0476
AACACGAT	0.0177
ATTGGGTA	-0.138
GTTTATCA	0.172
ACGCGTTA	-0.0792
ACGAGTTG	-0.0661
GGAATGCA	-0.285
AGAGACTG	0.0785
AGTTAGAT	0.122
ACTCGCCA	0.0822
ACCGAGCA	-0.0642
ATCACCGC	0.187
AACCTCGG	-0.0239
GGTTAGAC	0.0853
CTTAGAAA	-0.018
CGCGCGGA	0.0985

Sequence	PBM E-score
CTCGCCTC	-0.326
CTGGATAC	-0.141
CTGCTCGC	-0.0973
ATTCTGCC	-0.135
AAGTTCTG	0.0281
TAGCAGGA	-0.106
AATAGAAG	0.0254
CAGAGACC	-0.0889
GGGCGAAA	-0.103
CACGAACC	-0.164
AACATGAT	0.335
AAACACAC	0.0803
TAATCCTA	0.0784
AAGCGATC	-0.1
ACCTACAT	-0.194
GGGGCTAC	-0.0498
ACGGTACT	-0.0665
GGATAGAC	0.0932
CGCAAGAG	0.0483
GATAGGAC	-0.0209
CATCAACG	0.0798
ACATCACT	-0.0672
GGGTTAGA	-0.119
ACGACATG	-0.0453
TGGTACCA	-0.329

Sequence	PBM E-score
CAGCAATC	0.0201
CTATTCAC	-0.0554
AAAACCCG	-0.37
CAAGAAGA	0.152
AAGAGTGT	0.0229
CAAAAACC	0.0426
GCATTACA	-0.0842
GCTGGGGA	-0.262
CTCGCACA	-0.021
CTGACAGC	-0.214
CCAAAGTC	0.23
CGTTTTGC	-0.134
GGCTGGAA	-0.0188
ATGTGTCC	0.0701
AACTAAGT	0.246
CGTGAGAG	-0.255
GGCCAAGA	-0.016
CCTTCACG	-0.0437
CCCTGCAG	-0.106
CTCGATGC	-0.0842
GGCTACTA	0.0101
ACGATCAT	0.125
CATCCCAA	-0.00075
CAGACAGA	-0.0203
GGTACGAC	0.0767

Sequence	PBM E-score
GCACTCCA	-0.145
ACTTTCAG	-0.0592
CACTCCGC	-0.0571
GCCGAGAC	-0.00523
CATATCTC	-0.0513
AAGTACGT	0.115
CGGGATCA	-0.213
ATCGCTTG	-0.0176
AGCCCAAT	-0.133
ACGAATGC	0.0107
GTCGGCAC	-0.0765
CCACTGGG	-0.0826
CCTTTGTA	-0.0346
AGGCAATC	0.138
ACTTTTCA	-0.00764
AAAATAAC	0.0567
AGCACACG	-0.0785
CACGTGAA	-0.0684
CGCCGAAA	-0.059
CGGACATC	-0.359
TATGGAAA	-0.0802
CCTACTAG	0.159
CAGGATCA	-0.0136
CAGGGTAA	0.153
AGTGGATC	-0.0836

Sequence	PBM E-score
ATATGGCG	-0.193
GGTCAAGA	-0.0401
CGCGGACC	-0.262
ATATCTCC	-0.144
GTGAAGAA	0.0288
ATGGACAG	-0.115
AGGTGCAA	-0.0491
GTCGAGAA	-0.0113
CCCCAAAG	-0.169
GGAAATCA	0.292
CAACGAAG	-0.0515
ATATGTTG	-0.0992
CTACCAAG	-0.00418
AGCGTACT	-0.0503
AAGGCCAG	-0.349
TACTTGAA	0.115
GCAGTACA	0.0354
AGGGCGGG	-0.114
AGACCAAT	-0.0553
GGATTACA	0.0898
ACACACAC	0.141
CGAGAATA	-0.0825
GAAGGGGC	-0.307
TGAGAACA	0.0377
CATCGGCA	-0.0567

Sequence	PBM E-score
CATCTTGG	-0.163
AGTGATAT	-0.134
CGAAGTAC	-0.00769
ATCCGCTC	-0.166
ATCGCCAT	0.01
AAACGCGA	-0.0525
GTCGCGTA	0.139
AAGCGAGT	0.27
ACTTATAG	0.11
ATAAAGAC	0.196
ATTAAAAG	0.13
AATAGAGG	-0.144
ATCTTACG	0.209
AAGTTTGG	-0.0296
CCGCCGAG	-0.128
AACTGCGG	-0.293
CGACAACG	0.107
ATTAACGA	0.199
AACATGTC	-0.128
GACAGACA	0.0624
ATTATCTG	0.082
AGTTTATC	-0.0467
CTTTGCCA	-0.147
ATTGCGGC	-0.164
CTGGAGGC	-0.088

Sequence	PBM E-score
AATTCTTA	0.0531
CCCGGGAA	0.0078
ATTCGGGA	-0.0942
CCATCGTA	0.178
ACCGCAAA	0.00358
AGGTTAAC	0.161
CATTGACG	0.148
CCGTAGCA	-0.159
GAACGAAA	-0.267
ATAGAGTC	0.371
ACCTTTGC	0.0444
GGTACTTA	-0.0396
CCAGTGGG	-0.129
ACACGTCC	-0.282
CCGTCCGA	-0.287
CCGGGAAG	-0.0937
AAGATCGC	-0.183
AGAGTATG	-0.048
CGATACAG	-0.159
